The conditions of this series: Thermal, DSC.
The mark [1] stands for this setting: Homo sapiens, pH 6.6, N-(2-acetamido)iminodiacetic acid(ADA) 20 mM, NaCl 100 mM, reversible: yes.

Usually Tm stands for the temperature at which the thermal transition is half complete. For “Fibroblast growth factor 1 wild type (no sequence given)”, under setting [1], the Tm was found to be 40 °C, the “unfolding enthalpy (calorimetric)” value turned out to be 62.4 kcal/mol and the “unfolding enthalpy (van 't Hoff)” value amounted to 56.1 kcal/mol.
Regarding “Lysozyme C wild type (no sequence given)”, the Tm (Gallus gallus, pH 2.7, glycine hydrochloride 0.05 M, reversible: Unknown) was 66 °C.

These data come from FireProtDB (doi:10.1110/ps.37401).
